This is one part of the list.
How the values were obtained:
[1] = test system: HSkMC (human skeletal muscle cells); assay: cytotoxicity call (relative viability < 0.9); details: 10 µM
[2] = test system: HepG2; assay: cytotoxicity call (relative viability < 0.9); details: 10 µM
[3] = test system: S. aureus RN4220; assay: growth inhibition call (relative growth <= 0.2); details: 50 µM

SMILES	cytotoxicity call [1]	cytotoxicity call [2]	growth inhibition call [3]
CC(C)NC(=O)N(C)C[C@@H]1Oc2ccc(NC(=O)C3CCCCC3)cc2CC(=O)N([C@@H](C)CO)C[C@H]1C	inactive	inactive	inactive
CN1N=C(C(N)=O)CCC1=O	inactive	inactive	inactive
C[C@@H]1CCCCO[C@@H](CN(C)Cc2ccncc2)[C@H](C)CN([C@H](C)CO)C(=O)c2cc(NC(=O)Nc3ccc4c(c3)OCO4)ccc2O1	inactive	inactive	inactive
CCS(=O)(=O)Nc1ccc2c(c1)C(=O)N(C)[C@H]1CC[C@H](CC(=O)NCCCN3CCOCC3)O[C@H]1CO2	inactive	inactive	inactive
O=C(C[C@@H]1CC[C@@H]2[C@H](COC[C@H](O)CN2C(=O)c2ccccc2F)O1)N1CCN(c2ccccc2)CC1	inactive	inactive	inactive
COc1ccc2c3c(n(c2c1)C)[C@@H](CO)N(C[C@]13CCN(CC1)C(=O)c1cccnc1)C(=O)c1cccnc1	inactive	inactive	inactive
C[C@@H]1CN([C@@H](C)CO)C(=O)c2cccc(NC(=O)C3CCOCC3)c2O[C@@H]1CN(C)Cc1ccc(C(=O)O)cc1	inactive	inactive	inactive
C[C@H](CO)N1C[C@H](C)[C@H](CN(C)S(=O)(=O)c2ccc(Cl)cc2)OCCCC[C@H](C)Oc2ccc(NC(=O)c3ccncc3)cc2C1=O	inactive	inactive	inactive
Cc1ccc(S(=O)(=O)Nc2ccc3c(c2)C(=O)N([C@H](C)CO)C[C@H](C)[C@@H](CN(C)C(=O)Nc2cccc4ccccc24)O3)cc1	inactive	inactive	inactive
Cc1cc(C(=O)Nc2cccc3c2O[C@@H](CN(C)C(=O)Nc2c(C)noc2C)[C@H](C)CN([C@@H](C)CO)C3=O)n(C)n1	inactive	inactive	inactive
C[C@H]1CN([C@@H](C)CO)C(=O)Cc2cc(NC(=O)CCCN(C)C)ccc2O[C@@H]1CN(C)C(=O)Nc1ccc2c(c1)OCO2	inactive	inactive	inactive
Cc1ccc2sc(C(=O)O)cc2c1	inactive	inactive	inactive
CC(C)NC(=O)Nc1ccc2c(c1)C(=O)N([C@@H](C)CO)C[C@H](C)[C@@H](CN(C)C(=O)C1CCCCC1)OCCCC[C@@H](C)O2	inactive	inactive	inactive
COc1ccc(C(=O)Nc2ccc3c(c2)C(=O)N(C)[C@@H]2CC[C@@H](CC(=O)NCC4CC4)O[C@H]2CO3)cc1	inactive	inactive	inactive
COc1ccc(CN(C)C[C@@H]2OCCCC[C@H](C)Oc3ccc(NC(=O)Nc4cccc5ccccc45)cc3C(=O)N([C@H](C)CO)C[C@@H]2C)cc1	inactive	inactive	inactive
C[C@H]1CN([C@@H](C)CO)C(=O)c2cccc(NC(=O)Nc3ccc4c(c3)OCO4)c2O[C@@H]1CN(C)Cc1ccc(Oc2ccccc2)cc1	inactive	inactive	inactive
O=C(O)C1(c2ccccc2)CCCC1	inactive	inactive	inactive
COc1ccc(CN(C)C[C@H]2OCCCC[C@H](C)Oc3ccc(NC(=O)Nc4ccc(OC)cc4)cc3C(=O)N([C@H](C)CO)C[C@H]2C)cc1	inactive	active	inactive
C/C=C/c1ccc2c(c1)O[C@H](CN(C)S(=O)(=O)c1ccccc1)[C@H](C)CN([C@@H](C)CO)S2(=O)=O	inactive	inactive	inactive
CC(C)Cn1c(N)cc(=O)n(C)c1=O	inactive	inactive	inactive
CO[C@@H]1CN(C)C(=O)c2ccc(NS(=O)(=O)c3cn(C)cn3)cc2OC[C@@H](C)N(CC2CC2)C[C@H]1C	inactive	inactive	inactive
Nc1nonc1C(=O)OCC(=O)N1CCOCC1	inactive	inactive	inactive
C[C@H]1CN([C@@H](C)CO)C(=O)c2c(c3ccccc3n2C)-c2ccccc2CO[C@H]1CN(C)C(=O)Nc1cccc(F)c1	inactive	inactive	inactive
C[C@H](CO)N1C[C@H](C)[C@@H](CN(C)C(=O)Nc2cccc3ccccc23)Oc2ccc(NS(=O)(=O)c3ccc(Cl)cc3)cc2CC1=O	inactive	inactive	inactive
Cc1nn(C)c(C)c1C(=O)O	inactive	inactive	inactive
C[C@@H]1CCCCO[C@@H](CN(C)C(=O)CCCN(C)C)[C@@H](C)CN([C@H](C)CO)C(=O)c2cc(NC(=O)Nc3ccc(C(F)(F)F)cc3)ccc2O1	inactive	inactive	inactive
O=C(C[C@@H]1CC=CCCC(=O)OC[C@H](Cc2c[nH]c3ccccc23)NC1=O)N[C@H](CO)Cc1ccccc1	inactive	inactive	inactive
